Source: patent US20150258059A1, “ANTIMICROBIAL AND RADIOPROTECTIVE COMPOUNDS” (BioDiem, Ltd, priority 2001, published 2015)
In brackets after ≈: the same amount, converted by molar mass. Read-outs that look alike come from different tables or passages of the source. Marks after values point to notes of the source that are not given here.

Experiments:
Enterobacter aerogenes = test: NCCLS broth microdilution MIC/MBC; assay type: cell-based; conditions: Table 9, 35° C., 24 hours
Rhizopus stolonifer = test: NCCLS broth macro-dilution MIC/MFC (RPMI); assay type: cell-based; conditions: Table 10, 7 day, 30° C.
[1] = tested on: Staphylococcus aureus M-12159; test: Sensitivity of strains: suppression of growth; assay type: cell-based; conditions: Compound (1) 1.0%; antibiotics disc method
Streptococcus pyogenes = test: NCCLS broth microdilution MIC/MBC; assay type: cell-based; conditions: Table 9, 35° C., 24 hours
[2] = tested on: Neisseria gonorrhoeae WHO Strain VII; test: NCCLS broth microdilution MIC/MBC; assay type: cell-based; conditions: Table 9, 35° C., 24 hours
[3] = tested on: Klebsiella pneumoniae M-248; test: Sensitivity of strains: suppression of growth; assay type: cell-based; conditions: Compound (1) 1.0%; antibiotics disc method
[4] = tested on: Moraxella catarrhalis RMIT; test: NCCLS broth microdilution MIC/MBC; assay type: cell-based; conditions: Table 9, 35° C., 24 hours
[5] = tested on: Plasmodium falciparum 3D7
[6] = tested on: β-haemolytic streptococcus B-624; test: Agar diffusion assay
[7] = tested on: Staphylococci epidermidis D-513; test: Sensitivity of strains: suppression of growth; assay type: cell-based; conditions: Compound (1) 1.0%; antibiotics disc method
[8] = tested on: Enterobacter aerogenes B-679; test: Sensitivity of strains: suppression of growth; assay type: cell-based; conditions: Compound (1) 1.0%; antibiotics disc method
[9] = tested on: Enterobacter agglomerans B-679; test: Agar diffusion assay
Alkaligenes sp. B-667 = test: Sensitivity of strains: suppression of growth; assay type: cell-based; conditions: Compound (1) 1.0%; antibiotics disc method
[10] = tested on: Enterococcus faecalis ATCC 29212; test: NCCLS broth microdilution MIC/MBC; assay type: cell-based; conditions: Table 9, 35° C., 24 hours
Alkaligenes sp. B-689 = test: Agar diffusion assay
[11] = tested on: Trichophyton interdigitale; test: Impregnated agar serial double dilutions; conditions: meat peptone agar
Klebsiella oxytoca = test: microbe, parasite or virus in culture; assay type: cell-based; conditions: for MIC: Klebsiella oxytoca
A. calcoaceticus = test: Antibacterial activity in the presence of blood, macrodilution; assay type: cell-based; conditions: Acinetobacter calcoaceticus

Structure (SMILES): C/C(=C\c1ccc2c(c1)OCO2)[N+](=O)[O-] [Compound (1)]
- MIC (Enterobacter aerogenes; Klebsiella aerogenes): 512 mg/L (≈ 2470 µM)
- MMC (Enterobacter aerogenes): 512 µg/mL
- MIC (Rhizopus stolonifer; Rhizopus stolonifer, 168 h): 4 mg/L (≈ 19.3 µM)
- MMC (Rhizopus stolonifer): 16 µg/mL
- Suppression of Growth (+/−) [1]: +
- MIC (Streptococcus pyogenes; Streptococcus pyogenes): 16.8 mg/L (≈ 81.1 µM)
- MMC (Streptococcus pyogenes): 16.8 µg/mL
- MIC ([2]; Neisseria gonorrhoeae, read-out: MIC): 2 mg/L (≈ 9.65 µM)
- MMC [2]: 2 µg/mL
- Suppression of Growth (+/−) [3]: +
- MIC ([4]; Moraxella catarrhalis): 32 mg/L (≈ 154 µM)
- MMC [4]: 32 µg/mL
- effect on red blood cell morphology [5]: no detectable adverse effect
- effect on parasite growth and replication ([5]; 5, 10 and 25 μg/mL, up to 72 hours of culture): concentration-dependent inhibitory effect
- Diameter of zone of Growth inhibition ([6]; Concentration in disc 0.1%): 31# mm
- Diameter of zone of Growth inhibition ([6]; Concentration in disc 1.0%): 32# mm
- Diameter of zone of Growth inhibition ([6]; Concentration in disc 2.0%): 31# mm
- Suppression of Growth (+/−) [7]: +
- Suppression of Growth (+/−) [8]: +
- Diameter of zone of Growth inhibition ([9]; Concentration in disc 0.1%): 25# mm
- Diameter of zone of Growth inhibition ([9]; Concentration in disc 1.0%): 30# mm
- Diameter of zone of Growth inhibition ([9]; Concentration in disc 2.0%): 33# mm
- Suppression of Growth (+/−) (Alkaligenes sp. B-667): +
- MIC ([10]; Enterococcus faecalis, ATCC29212): 32 mg/L (≈ 154 µM)
- MMC [10]: 32 µg/mL
- Diameter of zone of Growth inhibition (Alkaligenes sp. B-689; Concentration in disc 0.1%): 36# mm
- Diameter of zone of Growth inhibition (Alkaligenes sp. B-689; Concentration in disc 1.0%): 38# mm
- Diameter of zone of Growth inhibition (Alkaligenes sp. B-689; Concentration in disc 2.0%): 40# mm
- Minimal % Compound (1) giving complete inhibition of test culture [11]: 0.25%
- MIC (Klebsiella oxytoca; after 12 weeks continuous exposure, read-out: Standard MIC Final): 256 mg/L (≈ 1240 µM)
- MIC (Klebsiella oxytoca; before exposure, MHB, read-out: Standard MIC Initial): 128 mg/L (≈ 618 µM)
- 7-Day MIC Range (Klebsiella oxytoca; Range to Week 12, No Rising Trend): 256 to 512 mg/L
- MIC (A. calcoaceticus; 10% plasma): 128 mg/L
- MIC (A. calcoaceticus; — (no plasma or blood)): 128 mg/L
